In all, about 410,000 compounds went through this assay and about 1,200 (0.29%) were called active. This list was built around the results that the source calls inconclusive (neither active nor inactive); the mix of calls is not that of the screen. Calls come from the whole dose curve; as a rule, active = well fitted activation curve with a large enough effect; inconclusive = small, poorly fitted or top-dose-only effect; inactive = flat fitted curve, though single readings scatter. Where the call is inconclusive, the potency comes from a doubtful curve fit.
assay: qHTS of Nrf2 Activators; settings: AREc32 ARE-luciferase reporter (MCF7-derived line), luminescence, 24 h; activation: at 46.1 µM (top of the series); note: nearly all actives have a fitted effect of over 65% in size
How it was run: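 Nrf2 activation is followed as ARE-luciferase induction in the AREc32 line after one day of compound treatment; luminescence is read with Steady-Glo.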
Potency is the fitted concentration of half-maximal effect; tags give direction and shape of the fitted curve.

**Q.** Which Potency does the source give for CCOc1ccc(C(=O)/C=C/c2cc(OC)c(OC)c(OC)c2)cc1 here?
**A.** inconclusive: 31.6 µM [activator, single point]

**Q.** Which Potency does the source give for COC(=O)/C=C/C(=O)Nc1ccc(O)c(Cl)c1 here?
**A.** inconclusive: 22.4 µM [activator, single point]

**Q.** With O=C(OC12CC3CC(CC(C3)C1)C2)c1ccc(NCc2cc(O)ccc2O)cc1 as the compound, how does the Potency read?
**A.** inconclusive: 3.55 µM [activator, single point]

**Q.** Which Potency does the source give for O=C(O)c1ccccc1C=NNc1ccccn1 here?
**A.** inactive

**Q.** With O=C(CCNS(=O)(=O)c1ccccc1)NCC1CCCCC1 as the compound, how does the Potency read?
**A.** inactive

**Q.** For O=C(COC(=O)/C=C/c1ccccc1)NCC1CCCO1 (stereo not given), which Potency is on record?
**A.** inconclusive: 12.6 µM [activator, partial curve, poor fit]

**Q.** With CCOc1cc(/C=C/C(=O)c2ccc3c(c2)OCCO3)ccc1OCC(=O)N(C)C as the compound, how does the Potency read?
**A.** active: 11.2 µM

**Q.** For Cc1c(C(=O)NCc2ccco2)oc2ccc(Br)cc12, which Potency is on record?
**A.** inconclusive: 12.6 µM [activator, partial curve, poor fit]

**Q.** With CC(/C=N/NC(=O)Cn1cnc2c1c(=O)n(C)c(=O)n2C)=C\c1ccco1 as the compound, how does the Potency read?
**A.** inconclusive: 15.8 µM [activator, single point]

**Q.** For COc1ccccc1-c1nc2c3ccccc3nc(=S)n2[nH]1, which Potency is on record?
**A.** inactive

**Q.** With N/C(=N\OC(=O)c1cccc2ccccc12)c1ccncc1 as the compound, how does the Potency read?
**A.** inconclusive: 12.6 µM [activator, partial curve, poor fit]

**Q.** With COc1cccc(CN(C)Cc2c(O)ccc3ccccc23)c1 as the compound, how does the Potency read?
**A.** inconclusive: 25.1 µM [activator, single point]

**Q.** For CSc1ncccc1C(=O)OCc1ccccc1, which Potency is on record?
**A.** inactive

**Q.** For Cc1cccc(-c2cc(C(=O)Nc3cccnc3)c3ccccc3n2)c1, which Potency is on record?
**A.** inactive

**Q.** Which Potency does the source give for C=CC[C@H](CC(=O)N(CCO)Cc1ccccc1)C(=O)N[C@H](COC(=O)[C@@H](CC=C)CC(=O)OC(C)(C)C)Cc1ccccc1 here?
**A.** inactive

**Q.** For Cc1c(Cl)cccc1NC(=O)C(C)n1nc(C)c2c(C)n(-c3ccccc3)nc2c1=O (stereo not given), which Potency is on record?
**A.** inactive

**Q.** Which Potency does the source give for CC(=O)NCc1ccc(C(=O)CCl)s1 here?
**A.** inconclusive: 22.4 µM [activator, single point]

**Q.** For Cc1ccccc1C(=O)Nc1nc2c(C)csc2c(=O)s1, which Potency is on record?
**A.** inconclusive: 2.82 µM [activator, full curve, poor fit]

**Q.** For O=c1[nH]c2ccccc2n2c(-c3ccccc3)nnc12, which Potency is on record?
**A.** inconclusive: 31.6 µM [activator, single point]

**Q.** For Cc1cc2c(n1-c1ccc(C(=O)NCCc3ccc(Cl)cc3)cc1)CCC(C)C2 (stereo not given), which Potency is on record?
**A.** inconclusive: 31.6 µM [activator, single point]
